From PMC4336329 (PLoS ONE, 2015)
About 2,200 (0.71%) of roughly 310,000 compounds showed an effect of 50% or more. The effect is printed as a negative number. The list shows a part of the results.

molecular target: human ether-à-go-go-related gene (hERG) potassium channel (human, UniProt Q12809); assay: primary screen, population patch clamp on CHO cells stably expressing hERG
Sequence (Q12809 whole entry, looked up): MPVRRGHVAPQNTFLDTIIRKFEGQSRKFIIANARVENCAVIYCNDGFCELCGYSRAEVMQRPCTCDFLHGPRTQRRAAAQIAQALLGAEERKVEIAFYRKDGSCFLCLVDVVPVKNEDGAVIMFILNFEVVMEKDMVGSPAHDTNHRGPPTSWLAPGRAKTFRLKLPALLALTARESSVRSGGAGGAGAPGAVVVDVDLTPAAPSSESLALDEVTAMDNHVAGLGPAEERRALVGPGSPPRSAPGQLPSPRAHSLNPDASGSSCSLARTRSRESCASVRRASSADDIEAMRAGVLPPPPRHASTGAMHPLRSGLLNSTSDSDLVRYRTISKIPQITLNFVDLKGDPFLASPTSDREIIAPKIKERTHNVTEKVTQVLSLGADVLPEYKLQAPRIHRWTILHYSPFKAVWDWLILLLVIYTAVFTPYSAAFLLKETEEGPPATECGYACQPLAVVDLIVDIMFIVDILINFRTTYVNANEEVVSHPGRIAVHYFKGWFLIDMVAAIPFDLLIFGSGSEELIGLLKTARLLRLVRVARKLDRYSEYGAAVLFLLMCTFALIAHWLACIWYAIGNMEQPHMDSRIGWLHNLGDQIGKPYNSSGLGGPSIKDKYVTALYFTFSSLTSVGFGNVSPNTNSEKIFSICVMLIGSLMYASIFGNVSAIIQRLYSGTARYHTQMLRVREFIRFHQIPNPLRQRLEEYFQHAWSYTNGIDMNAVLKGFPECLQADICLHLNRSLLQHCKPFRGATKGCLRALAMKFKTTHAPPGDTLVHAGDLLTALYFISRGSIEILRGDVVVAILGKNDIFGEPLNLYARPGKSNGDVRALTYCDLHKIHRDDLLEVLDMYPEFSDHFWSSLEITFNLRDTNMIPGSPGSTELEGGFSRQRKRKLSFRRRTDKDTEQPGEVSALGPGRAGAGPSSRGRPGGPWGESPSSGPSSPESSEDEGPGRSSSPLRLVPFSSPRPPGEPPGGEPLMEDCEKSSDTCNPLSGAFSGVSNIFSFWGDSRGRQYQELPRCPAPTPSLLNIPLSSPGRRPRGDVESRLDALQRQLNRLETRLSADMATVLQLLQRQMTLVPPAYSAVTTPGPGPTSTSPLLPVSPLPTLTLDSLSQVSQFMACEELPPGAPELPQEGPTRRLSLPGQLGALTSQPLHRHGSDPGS

SMILES | hERG current change (%, negative = inhibition) at 1uM
NNc1nc(-c2ccccc2)cc(-c2ccccc2)n1 | 18.4%
CCc1cc(C(=O)OC)c(NC(=O)CCC(=O)O)s1 | 4.17%
COc1ccc(Cc2noc(CN3CCN(c4ccc(Cl)cn4)CC3)n2)cc1OC | 7.29%
Br.CCCCC1(C(=O)OCC)CC(CSC(=N)N)OC1=O (stereo not drawn) | 7.06%
O=C1N(Cc2cccnc2)C[C@@H]2C[C@@H](c3ccc4nsnc4c3)N3CCC[C@@]123 | -1.94%
N#Cc1c(/N=C/c2ccco2)sc2c1CCCCC2 | -1.22%
O=C(CCCC1=NS(=O)(=O)c2ccccc2N1)OCc1ccc(Cl)cc1 | -0.477%
COc1ccccc1S(=O)(=O)Cc1ccc(C(=O)NCc2ccc3c(c2)OCO3)o1 | 6.9%
N=c1c(C(=O)NCc2ccc(F)cc2)cc2c(=O)n3ccccc3nc2n1CC1CCCO1 (stereo not drawn) | -85.3%
CCN1CCN(C(=O)CN(c2ccccc2C)S(C)(=O)=O)CC1 | 9.16%
FC(F)(F)c1ccc(CN2CCCCCC2)cc1 | 2.7%
Cc1n[nH]c(C)c1Sc1ccccc1N=Cc1cc(Cl)cc([N+](=O)[O-])c1O | 2.48%
CC(C(=O)c1ccc(-c2ccccc2)cc1)[n+]1cccc(NC(=O)c2ccccc2)c1.[Br-] (stereo not drawn) | 1.33%
C=CC(=O)N=c1sc2ccccc2n1-c1ccccc1 | 12.3%
COC(=O)c1c(NC(=O)c2ccccc2F)sc2c1C(C(=O)OC)CC2 (stereo not drawn) | 14.6%
O=C(NCC(c1cccs1)N1CCOCC1)c1cc(S(=O)(=O)N2CCOCC2)c(Cl)cc1Cl (stereo not drawn) | 6.08%
CCC(C)NC(=O)c1cc(-c2ccccc2O)on1 (stereo not drawn) | 8.15%
COc1cc(/C=C(/C#N)C(=O)NCCCc2ccccc2)ccc1OCC(=O)O | 11.7%
O=C(NO)c1ccc(C(=O)N(C2CCCCC2)C2CCCCC2)cc1 | 3.06%
Cc1cc(N2C(=O)c3ccccc3C2=O)n(C)n1 | 6.71%
Cc1nc2[nH]onc2c2nccc(=O)c12 | 16.6%
Cc1cc(C)n(-c2ccc(NC(=O)C3CCCCN3C(=O)c3sccc3C)cc2)n1 (stereo not drawn) | 24.1%
CCCSc1nc2c(c(=O)n(C)c(=O)n2C)n1Cc1ccc(C)cc1 | 7.28%

SMILES | hERG current change (%, negative = inhibition) at 1uM
CC(C)Oc1cccc(C(=O)NC(=S)Nc2cccnc2)c1 | 7.01%
COc1ccc(Cc2nnc(SCC(=O)Nc3nc(C)cs3)o2)cc1 | -0.837%
Cc1cc2ccccc2n1CCNC(=O)C1CC1 | -6.82%
COCCN(C(=O)COC(=O)c1ccc(Cl)nc1)c1c(N)n(Cc2ccccc2)c(=O)[nH]c1=O | 13.1%
O=C(Nc1ccccc1)Nc1ccccc1C(=O)NCC1CC1 | 12.7%
COc1ccc(CC(=O)OCC(=O)c2ccc(OC)cc2)cc1 | 6.08%
CNc1snc(C)c1C(=O)OCC(=O)c1ccc(Cl)cc1 | 7.88%
Cc1ccccc1NC(=S)N1CCCCCC1 | 10.8%
Nc1c(C(=O)O)nnn1Cc1ccccc1 | 10.1%
O=c1oc2ccccc2cc1-c1cn2ccccc2n1 | 8.38%
O=C(CNS(=O)(=O)c1ccc(Br)s1)N1CCN(C(=O)c2ccco2)CC1 | -10.5%
Cc1cccc(Cl)c1NC(=S)NN | 4.59%
Cc1ccnc(NCn2nnc3ccccc32)c1 | 15.6%
O=C(COC(=O)c1ccc(O)cc1)NCC1CCCO1 (stereo not drawn) | 17.3%
COc1ccc(C(=O)N2CCN(S(=O)(=O)c3cc(Cl)ccc3OC)CC2)cc1 | 3.46%
COC(=O)/C=C/C(=O)Nc1cccnc1 | 3.5%
CCCc1nc2c(o1)CC(CC(C)SCC)CC2=O (stereo not drawn) | -11.3%
CC(=O)O[C@]1(C(C)=O)CC[C@H]2[C@@H]3C=CC4=CC(=O)C=C[C@]4(C)[C@H]3CC[C@@]21C | 17.2%
Cc1cccc(S(=O)(=O)c2c(N)n(/N=C/c3ccco3)c3nc4ccccc4nc23)c1 | 10.1%
Cc1nc2cc(-c3ccccc3)nn2c(N)c1-c1ccccc1 | 12.7%
CC(C)n1cc([C@@H]2C[C@H]3CN(Cc4cccc(Cl)c4)C(=O)[C@]34CCCN24)cn1 | 0.99%
CCCN(CC(=O)Nc1cc(C)on1)CC(=O)Nc1ccccc1C | 12.2%
Cc1ccc(C)c(OCCC(=O)OC(C)C(=O)Nc2c(C)n(C)n(-c3ccccc3)c2=O)c1 (stereo not drawn) | 0.295%

SMILES | hERG current change (%, negative = inhibition) at 1uM
COc1ccc(N2C(=O)/C(=C/c3ccc(N(C)C)o3)C(=O)NC2=S)cc1 | 13.6%
CC(C)CCNC(=O)C(C)N(C(=O)Cn1nnc(-c2ccc(F)cc2)n1)C1CCCC1 (stereo not drawn) | 0.287%
CC(C)NS(=O)(=O)c1cccc2nsnc12 | 0.0421%
Cc1cc(C)c(NC(=O)Cc2ccc(-n3cccc3)cc2)c(C)c1 | 11.4%
Cc1cccc(-n2c(SCC(=O)NCc3ccc4c(c3)OCO4)nc3ccccc3c2=O)c1 | 9.15%
CCc1nnc(NS(=O)(=O)c2ccc(N=Cc3c(C)[nH]n(-c4ccc(C)c(C)c4)c3=O)cc2)s1 | 10.8%
O=C(N/N=C/c1cccc([N+](=O)[O-])c1)c1cccc(Br)c1 | 14.7%
COc1cc(Cn2c(=O)c3c(OC)c(C)cnc3n(C)c2=O)cc(OC)c1 | 6.04%
O=C(CNC(=O)c1ccc(Br)o1)NCc1ccc2c(c1)OCO2 | 10.1%
COc1ccccc1C(=O)N/C(=C\c1ccccc1)C(=O)NC(Cc1ccccc1)C(=O)O (stereo not drawn) | 13%
O=C(COC(=O)c1ccc(Cl)cc1O)NC(=O)C1CCCCC1 | 9.84%
CCOc1ccc2nc(NC(=O)CN3CCN(CC)CC3)sc2c1 | 4.81%
CCOC(=O)c1sc(=NC(=O)c2ccco2)n(C)c1C | 6.99%
O=S1(=O)CCC(N=Nc2c(O)n(Cc3ccccc3)c3ccccc23)C1 (stereo not drawn) | -6.53%
COc1ccc(C(=O)CSc2nc(C)cc(=O)[nH]2)cc1C | 6.63%
CCOc1ccc(Nc2ncnc3c2cnn3C)cc1 | 4.41%
Cc1ccc(C(=O)N2CCCCCC2)cc1S(=O)(=O)Nc1ccccc1 | -0.546%
COCCN(Cc1cc2cc(C)ccc2n2nnnc12)C(=S)Nc1cccc(C)c1 | 20.4%
Cc1cccc(-n2c(=O)c3c(n4cnnc24)-c2ccccc2CC32CCCCC2)c1 | 2.46%
CCc1nc(CN2CCN(c3cc(C(F)(F)F)ccn3)CC2)c(C)[nH]1 | -2.03%
COc1ccc(OCCC(=O)OCC(=O)Nc2ccc(Br)cc2)cc1 | 10.5%
CCOC(=O)C1CCN(CCC(=O)Nc2cc(C)ccc2C)CC1 | 5.38%
CCCN1CCN(CCCNC(=O)Cn2cc3c(n2)CCCC3)CC1 | 11.1%

SMILES | hERG current change (%, negative = inhibition) at 1uM
O=C(COc1ccc2c3c(c(=O)oc2c1)CCC3)N1CCN(c2ccccc2)CC1 | 16.3%
CCCN(CC(=O)Nc1ccc(Cl)cc1Cl)C(=O)CC(NC(C)=O)c1ccccc1 (stereo not drawn) | 10.4%
O=C(NCc1ccccc1)c1ccccc1C(=O)c1ncc[nH]1 | 15%
COC(=O)C1=C(c2cccc(C#N)c2)C[C@@H]2CC[C@H]1N2C(=O)N1CCCC1 | 15.3%
O=C(COC(=O)c1cn(-c2ccccc2)nc1-c1ccc(F)cc1)Nc1ncc(Cl)cc1Cl | 2.4%
Cc1nc2c(-c3ccc(F)cc3)c(C)nn2c(C)c1CCC(=O)Nc1ccccc1F | -9.35%
Cn1ccnc1COc1ccc(/C=N/O)cc1 | 12.8%
COc1ccc(C(=O)NC(=S)NNC(=O)c2ccc(NC(C)=O)cc2)cc1Br | 11%
Cn1c(NCc2cccs2)nc2ccccc21 | 4.22%
COc1ccc(CS(=O)(=O)CC(C)(O)c2ccc(Cl)cc2)cc1 (stereo not drawn) | 14.7%
COc1ccc(C(=O)/C=C/c2cc(C(=O)O)cc3c2OCOC3)c(O)c1 | 0.557%
Cc1ccc(N2NC3(CCN(C(N)=O)CC3)NC2=O)cc1 | 8.75%
COC(=O)c1ccc(N2CCN(C)CC2)c(NC(=O)COc2ccc(OC)cc2)c1 | -17%
CCOc1ccccc1C(C(=O)NCCOC)N(CCOC)C(=O)Cn1nnc2ccccc21 (stereo not drawn) | 17.1%
COCCCn1c(SCC(=O)OC2CCCCC2)nnc1-c1ccco1 | -19.9%
O=C(C1=C(O)C(=O)N(CCOCCO)C1c1ccccn1)c1cccs1 (stereo not drawn) | 12.5%
OCCNC(=S)Nc1ccc(Cl)c(Cl)c1 | 7.96%
COc1ccc(OC)c(S(=O)(=O)Nc2cnc3ccccc3c2)c1 | 2.23%
O=C(N/N=C/c1ccc(-n2ccnc2)cc1)c1cccs1 | -4.74%
O=C(Nc1ccccc1Cl)N1CCN(c2ccccn2)CC1 | -8.81%
COc1ccc(Cc2c(C)nc(N)nc2Cl)cc1 | 10.6%
